# Sequences with one replicate were seen in a single cluster, so their values are uncertain.
# System: ATP
# Assay: switch fluorescence ratio, 500 uM ATP over buffer (Cy3 cluster intensity, sum of 5 cycles each) (fold (ratio)); higher = stronger signal-on switching upon ATP binding; sequences stand for … in TCGTCGGCAGCGTCAGATGTGTATAAGAGACAGTTTTTTTTTTTTTTTTTTTTTTTTT…TC
# Conditions: aptamer strand: ATP DNA aptamer (quencher-CACCTGGGGGAGTATTGCGGAGGAAGG + anchor), 100 nM annealed; ATP concentration: 500 uM; one replicate
# How it was run: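 Between each of five buffer/ATP cycles, the flow-cell was stripped with NaOH and re-annealed. Each cycle imaged Cy3-labelled switching-strand clusters, annealed to 100 nM quencher-labelled ATP aptamer on a modified Illumina MiSeq flow-cell, first in selection buffer and then after 15 min with 500 uM ATP at 22 °C. The fluorescence ratio is summed target-cycle over summed buffer-cycle Cy3 intensity per cluster, averaged per switch-domain sequence, with clusters outside 100-1000 RFU excluded.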
# 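Further: ATP exposure 15 min at 22 °C before imaging.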
row,Sequence,switch fluorescence ratio
1,GCGGATAGG,1.01
2,GCGGATAGTT,0.987
3,GCGGATGCCT,0.985
4,GCGGATTTAG,0.978
5,GCGGCAAGTG,1.05
6,GCGGCGCGCT,0.989
7,GCGGCTAAGG,0.985
8,GCGGCTCAAG,1.03
9,GCGGGAACCG,1
10,GCGGGAAGGA,1.01
11,GCGGGAAGTG,0.967
12,GCGGGAGCAA,1.51
13,GCGGGAGTGT,1
14,GCGGGCCGTT,1.04
15,GCGGGGCGAG,1.33
16,GCGGGGGCTG,1.05
17,GCGGGGTAGC,1.02
18,GCGGGTGCCT,1.03
19,GCGGGTGGAG,1.04
20,GCGGTATTAC,1.32
21,GCGGTATTCA,0.996
22,GCGGTCCAAA,1.01
23,GCGGTCTTAA,0.974
24,GCGGTGAGCA,1.03
25,GCGGTGGGAC,1.04

row,Sequence,switch fluorescence ratio
1,GCGGTGTTCC,1.08
2,GCGGTTATTC,1.03
3,GCGGTTCGCC,1.02
4,GCGGTTGTGT,1.11
5,GCGGTTGTTT,0.951
6,GCGTAAATTT,0.967
7,GCGTAAGTAC,1.6
8,GCGTACTATT,1.02
9,GCGTAGGAAA,0.935
10,GCGTAGTGGT,0.978
11,GCGTATCTGT,0.971
12,GCGTCAAAG,1.01
13,GCGTCAAGGA,1.07
14,GCGTCAGAGC,0.99
15,GCGTCGGAAC,1.03
16,GCGTCGGCTT,0.967
17,GCGTCGTTGA,1.01
18,GCGTGACGCG,1.01
19,GCGTGATAAC,1.06
20,GCGTGATCC,1.06
21,GCGTGCCGCT,0.99
22,GCGTGGAAGG,1.02
23,GCGTGGTCAT,0.96
24,GCGTGTAGGA,1.03
25,GCGTGTTTGT,0.969

row,Sequence,switch fluorescence ratio
1,GCGTTACGAA,1.02
2,GCGTTAGACG,1.04
3,GCGTTAGAGT,1.06
4,GCGTTCTGAC,1.01
5,GCGTTGTAAG,1.01
6,GCGTTGTAAT,0.975
7,GCGTTTGTAT,1.03
8,GCGTTTTAAT,1.01
9,GCGTTTTCAT,0.982
10,GCGTTTTTAA,0.962
11,GCTAACTGAT,0.994
12,GCTAATCTGT,1.01
13,GCTAATGAAA,0.971
14,GCTACAGAGG,1.04
15,GCTACGTAC,1.86
16,GCTACGTTAT,1.35
17,GCTACTACAC,1.33
18,GCTACTAGCC,1.06
19,GCTACTAGTA,0.977
20,GCTACTCAAG,1.06
21,GCTACTTCAT,1.06
22,GCTAGAACCC,1.06
23,GCTAGAGCAA,1.1
24,GCTAGCAAAA,1.02
25,GCTAGCACGT,1.02

row,Sequence,switch fluorescence ratio
1,GCTAGCTAG,1.01
2,GCTAGGAGCC,0.993
3,GCTAGGGAAG,1.02
4,GCTAGTACCT,1.17
5,GCTAGTAGTT,0.968
6,GCTAGTATGG,0.969
7,GCTAGTTACT,0.99
8,GCTATCCGAC,1.24
9,GCTATGTGAC,1.05
10,GCTATTAGTA,0.986
11,GCTATTCTT,1.01
12,GCTCACGCGC,1.55
13,GCTCAGGCAA,1.2
14,GCTCATTAT,0.985
15,GCTCCGGATT,2.95
16,GCTCCTTCAT,1.13
17,GCTCCTTTCC,1.7
18,GCTCGAAACG,0.961
19,GCTCGATATC,1.12
20,GCTCGATCGC,1.09
21,GCTCGATTTT,1.02
22,GCTCGCATGA,1.33
23,GCTCGCGCTT,1.24
24,GCTCTAACA,1.02
25,GCTCTACCAC,1.05

row,Sequence,switch fluorescence ratio
1,GCTCTATCCA,0.97
2,GCTCTCCCGT,1.14
3,GCTCTCGGGA,1.05
4,GCTCTGCATG,1.47
5,GCTCTGTCGA,1.23
6,GCTGATAGGT,0.971
7,GCTGATCCGG,1.01
8,GCTGATCTTT,0.955
9,GCTGCAAGG,1.04
10,GCTGCAAGGA,1.15
11,GCTGCAAGTT,1.01
12,GCTGCATGTT,1.06
13,GCTGCGGAAG,1.05
14,GCTGCTAAAG,0.979
15,GCTGCTAGCG,1.04
16,GCTGCTATGT,1.06
17,GCTGCTCGAC,1.07
18,GCTGCTTGCA,1.01
19,GCTGGAATGA,0.972
20,GCTGGCGCCA,1.03
21,GCTGGCGTGT,1.08
22,GCTGGGGTCT,1.01
23,GCTGGTAGTG,0.989
24,GCTGGTATTT,0.961
25,GCTGGTCTA,0.995

row,Sequence,switch fluorescence ratio
1,GCTGGTGAAG,1.02
2,GCTGGTGACA,0.996
3,GCTGTAGCAT,1.05
4,GCTGTAGTG,1.03
5,GCTGTCGATA,0.957
6,GCTGTGCATC,1.05
7,GCTGTGCCGT,1.06
8,GCTGTTTCAA,0.974
9,GCTTAAAGTA,1
10,GCTTACATGT,1
11,GCTTACGTTA,1.17
12,GCTTAGATGG,0.985
13,GCTTCAATAA,1.05
14,GCTTCAGAGG,0.987
15,GCTTCCGTTT,1.04
16,GCTTCCTTAT,1.12
17,GCTTCTATGG,1.04
18,GCTTCTGCTG,0.988
19,GCTTGCATAT,1.02
20,GCTTGGAACG,1.01
21,GCTTGGAGAA,1.01
22,GCTTGGTGAG,0.978
23,GCTTGGTTGG,0.961
24,GCTTGGTTGT,1.02
25,GCTTGTAAAC,0.983

row,Sequence,switch fluorescence ratio
1,GCTTGTAGGT,0.984
2,GCTTGTGAAA,0.994
3,GCTTGTTTAA,1.01
4,GCTTTAACCA,0.992
5,GCTTTAGGCA,0.983
6,GCTTTAGTGC,1
7,GCTTTCGCCG,1.06
8,GCTTTCTCGC,1.42
9,GCTTTGAAGC,0.952
10,GCTTTGCTAT,1.03
11,GCTTTGTGGT,1.02
12,GCTTTTAGA,1.03
13,GGAAAAAACG,1.06
14,GGAAACAGGT,1.05
15,GGAAACGAAA,0.997
16,GGAAAGGATT,1.07
17,GGAAAGGCCT,0.984
18,GGAAAGTTCA,1
19,GGAAATACCG,0.974
20,GGAAATCGCC,1.05
21,GGAACAGGTT,1.06
22,GGAACCAAAA,1.06
23,GGAACCCTGA,1.02
24,GGAACCGTAT,1.05
25,GGAACTGCCC,1.15

row,Sequence,switch fluorescence ratio
1,GGAACTTGAT,1.02
2,GGAACTTTGG,0.989
3,GGAAGAAGGC,1.02
4,GGAAGACATA,1
5,GGAAGAGAGC,0.968
6,GGAAGATGCG,0.972
7,GGAAGCCAGC,0.964
8,GGAAGGAGAC,0.964
9,GGAAGTAATT,0.976
10,GGAATACCTT,1.1
11,GGAATAGCCT,1.05
12,GGAATCGGTT,0.972
13,GGAATG,1.05
14,GGAATGAGTT,0.994
15,GGAATGATTT,0.991
16,GGAATTCGTT,0.969
17,GGAATTCTCT,0.965
18,GGAATTGGCC,1.02
19,GGACAAAGGG,0.97
20,GGACCAGGCA,0.977
21,GGACCCTTTG,1.03
22,GGACCGATAT,1.08
23,GGACCGTAGA,1.04
24,GGACCGTGCT,0.97
25,GGACGAGGCT,1.01
